In article PMC6570896:
Results are given in words; binding and its absence hold for the method and conditions named. In cells and extracts the contact can be indirect. Some entries that bind do so weakly or less than the wild type. For part of these data: Sequences can lack the tags named with a protein.

Chains of the proteins cited; added tags and fusions are not shown.
UniProt Q9FXM3: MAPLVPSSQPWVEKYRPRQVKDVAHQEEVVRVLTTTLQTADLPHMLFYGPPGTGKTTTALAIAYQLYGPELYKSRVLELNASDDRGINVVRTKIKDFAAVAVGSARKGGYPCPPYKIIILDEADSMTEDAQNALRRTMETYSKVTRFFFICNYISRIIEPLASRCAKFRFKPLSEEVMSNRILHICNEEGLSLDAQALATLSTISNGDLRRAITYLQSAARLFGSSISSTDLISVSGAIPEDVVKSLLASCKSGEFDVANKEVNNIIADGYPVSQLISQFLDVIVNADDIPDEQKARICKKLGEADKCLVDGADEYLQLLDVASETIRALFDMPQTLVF
UniProt Q93ZX1: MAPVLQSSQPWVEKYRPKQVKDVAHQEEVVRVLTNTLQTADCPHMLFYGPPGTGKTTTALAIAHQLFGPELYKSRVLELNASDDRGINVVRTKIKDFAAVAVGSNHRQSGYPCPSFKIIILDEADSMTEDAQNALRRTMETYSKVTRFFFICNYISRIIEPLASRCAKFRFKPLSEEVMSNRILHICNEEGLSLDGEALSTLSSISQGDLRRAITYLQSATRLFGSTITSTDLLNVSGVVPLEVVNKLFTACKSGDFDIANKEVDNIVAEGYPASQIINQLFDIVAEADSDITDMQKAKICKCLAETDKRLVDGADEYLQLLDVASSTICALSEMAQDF

Assays:
Test in all cases: split reporter; BiFC: fusions to YFP^N (1-155 aa) and YFP^C (156-239 aa) co-expressed transiently in Nicotiana benthamiana leaf epidermal cells; YFP seen by confocal microscopy
[1] = target: T1, OsRFC1-YFP^N (rice (Oryza sativa)) (UniProt Q2R2B4)
T1 sequence: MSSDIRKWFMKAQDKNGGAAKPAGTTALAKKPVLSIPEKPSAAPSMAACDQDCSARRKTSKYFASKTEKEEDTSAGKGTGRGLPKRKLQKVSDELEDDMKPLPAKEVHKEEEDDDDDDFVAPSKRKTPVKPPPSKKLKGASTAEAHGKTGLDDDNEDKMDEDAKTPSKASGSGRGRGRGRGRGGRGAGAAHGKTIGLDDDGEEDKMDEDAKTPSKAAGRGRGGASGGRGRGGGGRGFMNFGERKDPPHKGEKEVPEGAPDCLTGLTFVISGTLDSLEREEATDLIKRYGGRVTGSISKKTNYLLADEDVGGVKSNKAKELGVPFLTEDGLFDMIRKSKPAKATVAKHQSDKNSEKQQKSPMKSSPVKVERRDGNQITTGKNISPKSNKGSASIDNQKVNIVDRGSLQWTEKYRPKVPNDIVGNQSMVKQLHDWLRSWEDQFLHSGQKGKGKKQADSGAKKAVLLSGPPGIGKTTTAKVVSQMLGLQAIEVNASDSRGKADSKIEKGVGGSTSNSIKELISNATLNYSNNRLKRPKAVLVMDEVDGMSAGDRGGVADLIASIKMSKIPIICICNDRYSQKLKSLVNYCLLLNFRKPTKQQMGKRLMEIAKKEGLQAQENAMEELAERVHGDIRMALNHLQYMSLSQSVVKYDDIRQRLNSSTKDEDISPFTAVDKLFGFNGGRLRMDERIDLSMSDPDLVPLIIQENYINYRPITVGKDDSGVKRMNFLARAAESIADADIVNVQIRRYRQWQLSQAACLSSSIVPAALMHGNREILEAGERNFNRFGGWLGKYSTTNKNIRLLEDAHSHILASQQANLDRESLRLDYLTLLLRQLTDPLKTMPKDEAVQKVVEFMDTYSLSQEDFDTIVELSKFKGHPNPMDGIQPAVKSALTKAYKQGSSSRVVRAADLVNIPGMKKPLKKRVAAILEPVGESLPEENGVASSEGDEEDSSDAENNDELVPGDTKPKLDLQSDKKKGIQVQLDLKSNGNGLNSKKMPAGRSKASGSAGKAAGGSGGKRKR

[2] = target: T2, OsRFC4-YFP^N (rice (Oryza sativa)) (UniProt Q7XRX1)
T2 sequence: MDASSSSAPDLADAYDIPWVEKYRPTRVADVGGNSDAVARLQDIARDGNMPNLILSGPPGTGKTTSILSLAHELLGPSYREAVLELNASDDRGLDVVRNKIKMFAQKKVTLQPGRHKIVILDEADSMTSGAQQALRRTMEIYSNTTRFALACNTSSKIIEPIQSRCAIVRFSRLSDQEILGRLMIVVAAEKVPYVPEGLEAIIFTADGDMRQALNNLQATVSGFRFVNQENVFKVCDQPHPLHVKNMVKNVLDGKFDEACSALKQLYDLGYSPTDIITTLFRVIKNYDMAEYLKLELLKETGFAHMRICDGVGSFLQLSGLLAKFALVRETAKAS

[3] = target: T3, OsRFC5-YFP^N (rice (Oryza sativa)) (UniProt Q852K3)
T3 sequence: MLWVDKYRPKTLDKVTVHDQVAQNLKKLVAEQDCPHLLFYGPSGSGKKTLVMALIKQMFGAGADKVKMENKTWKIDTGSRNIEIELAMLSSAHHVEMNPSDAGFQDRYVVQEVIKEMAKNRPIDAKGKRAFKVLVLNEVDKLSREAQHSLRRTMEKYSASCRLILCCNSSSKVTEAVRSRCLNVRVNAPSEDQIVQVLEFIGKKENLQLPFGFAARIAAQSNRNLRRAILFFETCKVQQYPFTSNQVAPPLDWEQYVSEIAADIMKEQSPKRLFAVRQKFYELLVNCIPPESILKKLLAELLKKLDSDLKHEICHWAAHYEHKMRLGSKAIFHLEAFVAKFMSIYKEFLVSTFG

[4] = target: OsPCNA-YFP^C (rice (Oryza sativa)) (UniProt P17070)
[5] = target: T4, OsRFC3-YFP^N (rice (Oryza sativa)) (UniProt Q6YZ54)
T4 sequence: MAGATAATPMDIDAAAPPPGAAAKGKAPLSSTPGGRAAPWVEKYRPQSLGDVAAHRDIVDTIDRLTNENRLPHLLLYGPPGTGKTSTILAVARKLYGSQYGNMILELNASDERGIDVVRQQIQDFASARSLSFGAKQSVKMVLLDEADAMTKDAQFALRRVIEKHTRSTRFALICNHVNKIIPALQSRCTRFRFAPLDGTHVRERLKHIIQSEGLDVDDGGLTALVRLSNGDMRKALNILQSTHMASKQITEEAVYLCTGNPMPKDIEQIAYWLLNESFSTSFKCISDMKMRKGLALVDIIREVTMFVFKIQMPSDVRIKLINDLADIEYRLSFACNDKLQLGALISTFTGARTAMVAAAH

[6] = target: OsPCNA Δ254–263 (rice (Oryza sativa)) (UniProt P17070)
[7] = target: OsRFC2-YFP^N (rice (Oryza sativa)) (UniProt Q9FXM3)
[8] = target: AtRFC4-YFP^N (Arabidopsis thaliana) (UniProt Q93ZX1)
[9] = target: AtPCNA2-YFP^C (Arabidopsis thaliana) (UniProt Q9ZW35)
[10] = target: T5, AtRFC2-YFP^N (Arabidopsis thaliana) (UniProt Q9CAM7)
T5 sequence: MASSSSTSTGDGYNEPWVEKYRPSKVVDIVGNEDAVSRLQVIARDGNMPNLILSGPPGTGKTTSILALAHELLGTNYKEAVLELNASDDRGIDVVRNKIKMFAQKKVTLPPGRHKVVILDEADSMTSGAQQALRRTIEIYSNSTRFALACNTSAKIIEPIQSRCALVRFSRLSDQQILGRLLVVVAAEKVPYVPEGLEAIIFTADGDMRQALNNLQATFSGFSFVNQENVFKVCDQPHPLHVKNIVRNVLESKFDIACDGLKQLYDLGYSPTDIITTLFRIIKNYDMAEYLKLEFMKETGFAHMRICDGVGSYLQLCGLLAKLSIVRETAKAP

[11] = target: AtPCNA1-YFP^C (Arabidopsis thaliana) (UniProt Q9M7Q7)
[12] = target: AtPCNA2 Δ1–120 (Arabidopsis thaliana) (UniProt Q9ZW35)
[13] = target: AtPCNA1 Δ224–263 (Arabidopsis thaliana) (UniProt Q9M7Q7)
[14] = target: AtPCNA1 Δ1–136 (Arabidopsis thaliana) (UniProt Q9M7Q7)
[15] = target: AtPCNA2 Δ225–264 (Arabidopsis thaliana) (UniProt Q9ZW35)
[16] = target: AtPCNA2 Δ1–136 (Arabidopsis thaliana) (UniProt Q9ZW35)

B1: OsPCNA Δ254–263 (domain or fragment, UniProt P17070 1-253)
chain: MLELRLVQGSLLKKVLEAIRELVTDANFDCSGTGFSLQAMDSSHVALVALLLRSEGFEHYRCDRNLSMGMNLNNMAKMLRCAGNDDIITIKADDGSDTVTFMFESPNQDKIADFEMKLMDIDSEHLGIPDSEYQAIVRMPSSEFSRICKDLSSIGDTVIISVTKEGVKFSTAGDIGTANIVCRQNKTVDKPEDATIIEMQEPVSLTFALRYMNSFTKASPLSEQVTISLSSELPVVVEYKIAEMGYIRFYLAP
In the case of B1, the binding [1] is reported as “binds”, the binding [2] is reported as “binds” and the binding [3] is reported as “binds”. The binding [4] was “binds”, the binding [5] was “binds” and the binding [6] was “binds”. For the same binder, the binding [7] was “no binding”.

B2: AtPCNA2 Δ1–120 (domain or fragment, UniProt Q9ZW35 121-264)
chain: IDSEHLGIPDAEYHSIVRMPSGEFSRICKDLSSIGDTVVISVTKEGVKFSTAGDIGTANIVLRQNTTVDKPEDAIVIEMNEPVSLSFALRYMNSFTKATPLSETVTISLSSELPVVVEYKVAEMGYIRYYLAPKIEEEEDTKPE
In the case of B2, the binding [8] is reported as “binds”, the binding [9] is reported as “binds” and the binding [10] is reported as “binds”. The binding [11] was “binds” and the binding [12] was “binds”.

B3: AtPCNA1 Δ224–263 (domain or fragment, UniProt Q9M7Q7 1-223)
chain: MLELRLVQGSLLKKVLESIKDLVNDANFDCSSTGFSLQAMDSSHVALVSLLLRSEGFEHYRCDRNLSMGMNLGNMSKMLKCAGNDDIITIKADDGGDTVTFMFESPTQDKIADFEMKLMDIDSEHLGIPDAEYHSIVRMPSNEFSRICKDLSSIGDTVVISVTKEGVKFSTAGDIGTANIVLRQNTTVDKPEDAIVIEMKEPVSLSFALRYMNSFTKATPLSD
B3 was tested, and the binding [13] was “no binding”.

B4: AtPCNA1 Δ1–136 (domain or fragment, UniProt Q9M7Q7 137-263)
chain: VRMPSNEFSRICKDLSSIGDTVVISVTKEGVKFSTAGDIGTANIVLRQNTTVDKPEDAIVIEMKEPVSLSFALRYMNSFTKATPLSDTVTISLSSELPVVVEYKVAEMGYIRYYLAPKIEEEEDTNP
B4 was tested, and the binding [8] was “no binding”, the binding [9] was “no binding” and the binding [10] was “no binding”. For the same binder, the binding [14] was “no binding” and the binding [11] was “no binding”.

B5: AtPCNA2 Δ225–264 (domain or fragment, UniProt Q9ZW35 1-224)
chain: MLELRLVQGSLLKKVLEAVKDLVNDANFDCSTTGFSLQAMDSSHVALVSLLLRSEGFEHYRCDRNLSMGMNLGNMSKMLKCAGNDDIITIKADDGSDTVTFMFESPTQDKIADFEMKLMDIDSEHLGIPDAEYHSIVRMPSGEFSRICKDLSSIGDTVVISVTKEGVKFSTAGDIGTANIVLRQNTTVDKPEDAIVIEMNEPVSLSFALRYMNSFTKATPLSET
In the case of B5, the binding [15] is reported as “no binding”.

B6: AtPCNA2 Δ1–136 (domain or fragment, UniProt Q9ZW35 137-264)
chain: VRMPSGEFSRICKDLSSIGDTVVISVTKEGVKFSTAGDIGTANIVLRQNTTVDKPEDAIVIEMNEPVSLSFALRYMNSFTKATPLSETVTISLSSELPVVVEYKVAEMGYIRYYLAPKIEEEEDTKPE
With B6 the binding [8] was “no binding”, the binding [16] was “no binding” and the binding [9] was “no binding”. For the same binder, the binding [10] was “no binding” and the binding [11] was “no binding”.
